# From the supplement of paper PMC3334620
# In all, about 33,000 sequences were measured (“E-score (-0.5 to 0.5)”: median about -0.021, highest 2% from about 0.32 on). Some of the results follow.
# Target: T1, Zap1 (UniProt P47043)
# T1 sequence: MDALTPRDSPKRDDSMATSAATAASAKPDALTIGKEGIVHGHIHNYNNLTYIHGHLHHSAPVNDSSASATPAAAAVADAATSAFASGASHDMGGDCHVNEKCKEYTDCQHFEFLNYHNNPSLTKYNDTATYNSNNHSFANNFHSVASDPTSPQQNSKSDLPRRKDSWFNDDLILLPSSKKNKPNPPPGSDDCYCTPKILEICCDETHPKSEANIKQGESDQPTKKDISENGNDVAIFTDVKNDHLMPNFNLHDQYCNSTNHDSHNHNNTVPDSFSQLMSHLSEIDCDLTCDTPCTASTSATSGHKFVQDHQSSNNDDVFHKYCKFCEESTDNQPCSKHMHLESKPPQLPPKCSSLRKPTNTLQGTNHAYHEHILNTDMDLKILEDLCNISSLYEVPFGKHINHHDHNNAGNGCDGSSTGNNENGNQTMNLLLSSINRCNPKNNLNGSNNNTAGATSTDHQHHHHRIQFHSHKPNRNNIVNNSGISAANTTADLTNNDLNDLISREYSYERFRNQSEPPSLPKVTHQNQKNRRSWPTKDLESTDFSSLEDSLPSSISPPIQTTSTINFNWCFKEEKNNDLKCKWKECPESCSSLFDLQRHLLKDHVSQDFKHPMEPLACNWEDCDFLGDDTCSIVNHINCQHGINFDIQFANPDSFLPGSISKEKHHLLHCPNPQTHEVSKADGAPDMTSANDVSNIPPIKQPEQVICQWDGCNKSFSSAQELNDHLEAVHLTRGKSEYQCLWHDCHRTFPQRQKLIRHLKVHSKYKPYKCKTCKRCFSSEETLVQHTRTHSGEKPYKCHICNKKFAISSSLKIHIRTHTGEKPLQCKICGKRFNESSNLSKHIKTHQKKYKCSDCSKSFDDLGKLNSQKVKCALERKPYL
# Test: PBM E-score (8-mer binding enrichment) (E-score (-0.5 to 0.5)); higher = stronger / more preferred TF binding; most listed sequences are background and not binding sites
# Settings: protein concentration: 200 nM; construct: GST-full length
# Experimental: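 Universal 'all 10-mer' protein binding microarrays (Agilent AMADID 015681) probed with GST-tagged S. cerevisiae TFs (full-length or DBD) made by in vitro transcription/translation (PURExpress), about 100-200 nM. Bound TF was detected with fluorescent anti-GST. Each ungapped 8-mer (which stands for itself and its reverse complement) is scored by the PBM enrichment score (E-score), a modified Wilcoxon-Mann-Whitney statistic from -0.5 to +0.5, computed with the Universal PBM Analysis Suite. Scale: above 0.35 generally sequence-specific binding.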
row,Sequence,PBM E-score
1,CTGTATAC,0.0219
2,GTCAGTCA,-0.148
3,ACTTAATC,0.00205
4,ACGATTGC,-0.11
5,GGTATCAC,0.0481
6,GGCATCAC,-0.212
7,ATACACAT,-0.00633
8,GTACAGCA,-0.00655
9,ACAGATAC,0.111
10,AGGTTTTC,0.215
11,AATTCGGT,0.219
12,ACCTTAAA,0.247
13,AGCCTAGG,-0.224
14,GACGGTTA,0.305
15,GAATAATA,0.204
16,ACAAGGAT,0.0412
17,CTACGTAC,0.00912
18,ACGGAACC,0.148
19,CTGGTGAA,-0.0889
20,CATTATCG,0.109
21,ATCGGTCA,0.0709
22,AAAGCGAC,0.00189
23,ATAAAAAG,0.268
24,GGGAATAA,0.101
25,ACGGGGGA,-0.316

row,Sequence,PBM E-score
1,ACGACCCG,0.0256
2,CACGGTGC,0.108
3,CCATCGCC,-0.197
4,CCTATACA,-0.063
5,CGTCCCCA,-0.143
6,GGATTTGA,-0.0668
7,AAAGCACT,0.00349
8,AATACGCC,-0.195
9,CTCTGCAC,0.0614
10,CCGCTATC,0.0509
11,CCCAAACC,0.15
12,CAATAATA,0.163
13,AAGTGGAA,0.102
14,CAGCCTTA,-0.0472
15,CGAACCTC,0.048
16,AACGGTGC,-0.0595
17,ACTGGGCC,-0.239
18,AGCACCGC,-0.0643
19,AGCTGAAG,-0.037
20,GTGTCGGA,-0.0176
21,GGAGTGAA,-0.204
22,TCATTCAA,0.222
23,AGGTGTTG,-0.0192
24,TAGAAGCA,-0.134
25,AACCATAA,0.41

row,Sequence,PBM E-score
1,ACCGCACC,0.134
2,GCAGTTTA,-0.0281
3,CTGAGGGA,-0.157
4,GTACGCAA,0.0458
5,CCCGGCAC,-0.192
6,CCCAAGTA,0.181
7,CTAGCAGA,-0.0719
8,AATCAAGG,0.0457
9,GGGACCTA,0.0642
10,CGCACACG,-0.0768
11,AGAGTCTA,-0.125
12,ATTTAAAA,0.111
13,ATTGTGAC,0.159
14,GTCAAGAA,0.297
15,AGGCGCAT,-0.244
16,AGTCACGG,0.0599
17,CTAATTCC,0.0516
18,CACACGCC,-0.0116
19,GTCTTCTA,-0.0319
20,CGCTTTGC,-0.0273
21,AGAAAGGG,0.105
22,GGCTAATA,0.0727
23,CAAGCGCG,-0.196
24,AGGAGGTG,-0.227
25,ACAAGCTG,0.0122

row,Sequence,PBM E-score
1,CGAGATCC,-0.225
2,CATGGTCA,0.296
3,GCGTAGCC,-0.229
4,AAGCAGTA,-0.108
5,CACCTAAA,0.191
6,ATCGAGAA,-0.00989
7,GTACTGAA,0.317
8,ACAATGGC,-0.0816
9,CTGGCCGA,-0.318
10,CTGGCAGC,-0.189
11,AGCATTTA,-0.0867
12,ACGCGTCC,-0.184
13,CGGATCCC,-0.213
14,AGACTTGC,-0.31
15,ACGTCCCG,-0.191
16,CAAAATCG,0.0242
17,GATTACCC,0.316
18,GATAGGCC,-0.107
19,GACCCGAA,0.175
20,CCTAAGGC,-0.0765
21,GATTCGCA,-0.114
22,ACCATGCA,0.13
23,CAATCATG,0.048
24,AGTTCTGG,0.0815
25,GCGAGACA,-0.212

row,Sequence,PBM E-score
1,CAATCATC,0.124
2,CTTCGCCA,-0.333
3,AAGCCCAC,-0.153
4,ACCGCCAT,-0.00604
5,CCTGGCGC,-0.221
6,AGTTCACG,-0.0666
7,CCGACAAA,0.105
8,CCGAGAAG,0.0178
9,CAACTCCC,-0.0427
10,AAGTTCAC,-0.108
11,CGCTTCGC,-0.145
12,CGGTGAGC,-0.234
13,ATAGTGTC,0.0637
14,CGCAAGTA,-0.108
15,AACCGAAC,0.18
16,CCGCTCGA,-0.0533
17,CCTGTCTA,-0.0816
18,AATGGACA,0.0048
19,TGTTATAA,0.247
20,GCGGAGAA,-0.0665
21,CCTCGTGA,0.179
22,ATTCACGG,0.137
23,GTTAAGAA,0.197
24,AGCTAGTG,-0.213
25,CAACCCAC,0.229

row,Sequence,PBM E-score
1,AACCCAAT,0.187
2,CCCTGTAC,-0.119
3,ATTTCTTG,0.0978
4,GACGCAAC,0.0304
5,AAGTCCAT,-0.12
6,ACAAGGTC,0.294
7,ATCCATCC,-0.221
8,GTAAGCCA,-0.0931
9,AAGCGGAA,-0.162
10,CATCATGC,-0.0984
11,GCACTTCA,-0.125
12,ATGCAAAA,0.0603
13,GAGCCACC,-0.0874
14,CATATAAA,0.141
15,TCTGAAAA,0.0796
16,CGGATCTC,-0.104
17,CATCACCG,-0.0753
18,CTCTCGGA,-0.0124
19,CCTCGAAC,0.175
20,GGGACACA,0.123
21,CCCATATA,0.159
22,AGTGAAAC,0.02
23,CATTATGC,-0.0305
24,CCCATCCG,-0.128
25,CATATGAC,0.153

row,Sequence,PBM E-score
1,ATATTCTC,0.0406
2,GAGTTACA,0.0751
3,AAGATACT,-0.115
4,AATGTGGC,-0.103
5,ACCCTCAG,0.325
6,GCGAGCGA,-0.039
7,ATCGCATG,-0.0268
8,ATAATGTG,-0.0256
9,ATCTGACG,-0.195
10,CGTATAAG,-0.121
11,ACGACAGC,-0.131
12,CACCCTAG,0.353
13,CGATTAAG,-0.0902
14,AATAGATT,0.0206
15,GCACCAAA,0.0458
16,ATCCAGAC,-0.0335
17,AGAGGTGA,0.272
18,CTTAGTAC,0.0955
19,ATGGAACG,-0.116
20,AGTTAATC,-0.0165
21,AGTCAACG,-0.175
22,GAAAACAC,0.146
